The supplement of paper PMC8728848
This is one part of the list.

Assays:
Test in all cases: glycan array binding signal (z-score within array); higher = stronger binding
Conditions in all cases: glycan notation: IUPAC condensed, linker removed
[1] = molecular target: Neu5Ac(a2-3)Gal(b1-3)[Fuc(a1-4)]GlcNAc
Outline: (§1)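 Glycan array data were curated from 3228 arrays in the Consortium for Functional Glycomics database and kept only where the protein sequence was available. Glycan names were converted to IUPAC-condensed notation, and columns mapping to the same glycan were averaged. The binding signal is a within-array Z-score, averaged across arrays of the same protein sequence at different concentrations or buffers and across linkers. Negative Z-scores can be read as non-binding.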

[2] = molecular target: Neu5Ac(a2-3)Gal(b1-3)[Fuc(a1-4)]GlcNAc(b1-3)Gal(b1-3)[Fuc(a1-4)]GlcNAc
Outline: as §1

[3] = molecular target: Neu5Ac(a2-3)Gal(b1-3)[Fuc(a1-4)]GlcNAc(b1-3)Gal(b1-4)[Fuc(a1-3)]GlcNAc
Outline: as §1

[4] = molecular target: Neu5Ac(a2-3)Gal(b1-3)[GlcNAc(b1-6)]GalNAc
Outline: as §1

[5] = molecular target: Neu5Ac(a2-3)Gal(b1-3)[Neu5Ac(a2-6)]GalNAc
Outline: as §1

[6] = molecular target: Neu5Ac(a2-3)Gal(b1-3)[Neu5Ac(a2-6)]GlcNAc(b1-3)[Fuc(a1-3)[Gal(b1-4)]GlcNAc(b1-6)]Gal(b1-4)Glc
Outline: as §1

[7] = molecular target: Neu5Ac(a2-3)Gal(b1-3)]Neu5Ac(a2-3)Gal(b1-4)]GlcNAc
Outline: as §1

[8] = molecular target: Neu5Ac(a2-3)Gal(b1-4)Glc
Outline: as §1

[9] = molecular target: Neu5Ac(a2-3)Gal(b1-4)GlcNAc
Outline: as §1

[10] = molecular target: Neu5Ac(a2-3)Gal(b1-4)GlcNAc(b1-2)Man
Outline: as §1

[11] = molecular target: Neu5Ac(a2-3)Gal(b1-4)GlcNAc(b1-2)Man(a1-3)[GlcNAc(b1-4)][Neu5Ac(a2-3)Gal(b1-4)GlcNAc(b1-2)Man(a1-6)]Man(b1-4)GlcNAc(b1-4)GlcNAc
Outline: as §1

[12] = molecular target: Neu5Ac(a2-3)Gal(b1-4)GlcNAc(b1-2)Man(a1-3)[Neu5Ac(a2-3)Gal(b1-4)GlcNAc(b1-2)Man(a1-6)]Man(b1-4)GlcNAc(b1-4)GlcNAc
Outline: as §1

[13] = molecular target: Neu5Ac(a2-3)Gal(b1-4)GlcNAc(b1-2)Man(a1-3)[Neu5Ac(a2-3)Gal(b1-4)GlcNAc(b1-2)Man(a1-6)]Man(b1-4)GlcNAc(b1-4)[Fuc(a1-6)]GlcNAc
Outline: as §1

[14] = molecular target: Neu5Ac(a2-3)Gal(b1-4)GlcNAc(b1-2)Man(a1-3)[Neu5Ac(a2-6)Gal(b1-4)GlcNAc(b1-2)Man(a1-6)]Man(b1-4)GlcNAc(b1-4)GlcNAc
Outline: as §1

[15] = molecular target: Neu5Ac(a2-3)Gal(b1-4)GlcNAc(b1-2)[Neu5Ac(a2-3)Gal(b1-4)GlcNAc(b1-4)]Man(a1-3)[GlcNAc(b1-4)][Neu5Ac(a2-3)Gal(b1-4)GlcNAc(b1-2)[Neu5Ac(a2-3)Gal(b1-4)GlcNAc(b1-6)]Man(a1-6)]Man(b1-4)GlcNAc(b1-4)GlcNAc
Outline: as §1

[16] = molecular target: Neu5Ac(a2-3)Gal(b1-4)GlcNAc(b1-2)[Neu5Ac(a2-3)Gal(b1-4)GlcNAc(b1-4)]Man(a1-3)[GlcNAc(b1-4)][Neu5Ac(a2-3)Gal(b1-4)GlcNAc(b1-4)Man(a1-6)]Man(b1-4)GlcNAc(b1-4)GlcNAc
Outline: as §1

[17] = molecular target: Neu5Ac(a2-3)Gal(b1-4)GlcNAc(b1-2)[Neu5Ac(a2-3)Gal(b1-4)GlcNAc(b1-6)]Man(a1-6)[Neu5Ac(a2-3)Gal(b1-4)GlcNAc(b1-2)Man(a1-3)]Man(b1-4)GlcNAc(b1-4)GlcNAc
Outline: as §1

[18] = molecular target: Neu5Ac(a2-3)Gal(b1-4)GlcNAc(b1-2)[Neu5Ac(a2-3)Gal(b1-4)GlcNAc(b1-6)]Man(a1-6)[Neu5Ac(a2-3)Gal(b1-4)GlcNAc(b1-2)Man(a1-3)][GlcNAc(b1-4)]Man(b1-4)GlcNAc(b1-4)GlcNAc
Outline: as §1

[19] = molecular target: Neu5Ac(a2-3)Gal(b1-4)GlcNAc(b1-3)Gal
Outline: as §1

[20] = molecular target: Neu5Ac(a2-3)Gal(b1-4)GlcNAc(b1-3)Gal(b1-3)GlcNAc
Outline: as §1

[21] = molecular target: Neu5Ac(a2-3)Gal(b1-4)GlcNAc(b1-3)Gal(b1-4)GlcNAc
Outline: as §1

[22] = molecular target: Neu5Ac(a2-3)Gal(b1-4)GlcNAc(b1-3)Gal(b1-4)GlcNAc(b1-2)Man(a1-3)[Neu5Ac(a2-3)Gal(b1-4)GlcNAc(b1-3)Gal(b1-4)GlcNAc(b1-2)Man(a1-6)]Man(b1-4)GlcNAc(b1-4)GlcNAc
Outline: as §1

[23] = molecular target: Neu5Ac(a2-3)Gal(b1-4)GlcNAc(b1-3)Gal(b1-4)GlcNAc(b1-3)Gal(b1-4)GlcNAc
Outline: as §1

[24] = molecular target: Neu5Ac(a2-3)Gal(b1-4)GlcNAc(b1-3)Gal(b1-4)GlcNAc(b1-3)Gal(b1-4)GlcNAc(b1-2)Man(a1-3)[Neu5Ac(a2-3)Gal(b1-4)GlcNAc(b1-3)Gal(b1-4)GlcNAc(b1-3)Gal(b1-4)GlcNAc(b1-2)Man(a1-6)]GalNAc
Outline: as §1

[25] = molecular target: Neu5Ac(a2-3)Gal(b1-4)GlcNAc(b1-3)Gal(b1-4)GlcNAc(b1-3)GalNAc
Outline: as §1

[26] = molecular target: Neu5Ac(a2-3)Gal(b1-4)GlcNAc(b1-3)Gal(b1-4)GlcNAc(b1-3)[Neu5Ac(a2-3)Gal(b1-4)GlcNAc(b1-3)Gal(b1-4)GlcNAc(b1-6)]GalNAc
Outline: as §1

[27] = molecular target: Neu5Ac(a2-3)Gal(b1-4)GlcNAc(b1-3)Gal(b1-4)GlcNAc(b1-6)[Gal(b1-3)]GalNAc
Outline: as §1

[28] = molecular target: Neu5Ac(a2-3)Gal(b1-4)GlcNAc(b1-3)Gal(b1-4)[Fuc(a1-3)]GlcNAc
Outline: as §1

[29] = molecular target: Neu5Ac(a2-3)Gal(b1-4)GlcNAc(b1-3)GalNAc
Outline: as §1

[30] = molecular target: Neu5Ac(a2-3)Gal(b1-4)GlcNAc(b1-3)[Neu5Ac(a2-3)Gal(b1-4)GlcNAc(b1-6)]GalNAc
Outline: as §1

[31] = molecular target: Neu5Ac(a2-3)Gal(b1-4)GlcNAc(b1-6)GalNAc
Outline: as §1

[32] = molecular target: Neu5Ac(a2-3)Gal(b1-4)GlcNAc(b1-6)[Gal(b1-3)]GalNAc
Outline: as §1

[33] = molecular target: Neu5Ac(a2-3)Gal(b1-4)GlcNAc(b1-6)[Neu5Ac(a2-3)Gal(b1-3)]GalNAc
Outline: as §1

[34] = molecular target: Neu5Ac(a2-3)Gal(b1-4)GlcNAc6S
Outline: as §1

[35] = molecular target: Neu5Ac(a2-3)Gal(b1-4)[Fuc(a1-3)]GlcNAc
Outline: as §1

[36] = molecular target: Neu5Ac(a2-3)Gal(b1-4)[Fuc(a1-3)]GlcNAc(b1-2)Man
Outline: as §1

[37] = molecular target: Neu5Ac(a2-3)Gal(b1-4)[Fuc(a1-3)]GlcNAc(b1-3)Gal
Outline: as §1

[38] = molecular target: Neu5Ac(a2-3)Gal(b1-4)[Fuc(a1-3)]GlcNAc(b1-3)Gal(b1-4)GlcNAc
Outline: as §1

[39] = molecular target: Neu5Ac(a2-3)Gal(b1-4)[Fuc(a1-3)]GlcNAc(b1-3)Gal(b1-4)[Fuc(a1-3)]GlcNAc(b1-3)Gal(b1-4)[Fuc(a1-3)]GlcNAc
Outline: as §1

[40] = molecular target: Neu5Ac(a2-3)Gal(b1-4)[Fuc(a1-3)]GlcNAc(b1-3)GalNAc
Outline: as §1

[41] = molecular target: Neu5Ac(a2-3)Gal(b1-4)[Fuc(a1-3)]GlcNAc(b1-6)[Gal(b1-3)]GalNAc
Outline: as §1

[42] = molecular target: Neu5Ac(a2-3)Gal(b1-4)[Fuc(a1-3)]GlcNAc(b1-6)[Neu5Ac(a2-3)Gal(b1-3)]GalNAc
Outline: as §1

[43] = molecular target: Neu5Ac(a2-3)Gal(b1-4)[Fuc(a1-3)]GlcNAc6S
Outline: as §1

[44] = molecular target: Neu5Ac(a2-3)Gal6S(b1-4)GlcNAc
Outline: as §1

[45] = molecular target: Neu5Ac(a2-3)Gal6S(b1-4)[Fuc(a1-3)]GlcNAc
Outline: as §1

B1: PX14343B-bfa-546-20-546 (Bacteroides fragilis) (protein)
chain: CDLERYPLTDLSEETFWNSESNAELALTSLYRGSLTDGVEYNPSDWWSYHGMIMMEHLSDNAFDRRGENNPFFKISSGNLTADNAFIKRYWETSYKRIGYCNRFLVGIQNSSESEKKTRMIAEARFLRATQYFYLASYFKNVPLVENVLTGEEANNVTKTSQADILKWCVTEFTAAAADLPRFSAIPAGEAGRACKQAALAFLGRTCMLQKDWKSGAKAFHDIMELGDNAINANYQELFYPSTGTSNKENIFYIQYLENYLGTGLPQHALSAKDGGWSLVNPAADLYESYEFKDGTPFSYDDPRYDPSNLGKDRDPRLDYTIYYNGAIFMGTEYKMSPDYSAAKKEKLDYTSEASRTGFMMRKYFEESTPINDVQSANGLTPVIRYAEVLLGYLECLVEDNQTITQGILDETINAVRGRASVNMPPVTEVTPAKLREIVRHERRIELAMEGIRYWDIMRWGIAHEVLSQKIWGAPYPGSTQYATTTKEVDPTGNYRWYVGKRAFRNPTDYTWPIPQSEQNINPNLRD
glycan array binding signal (z-score) [1]: -0.107
glycan array binding signal (z-score) [2]: -0.107
glycan array binding signal (z-score) [3]: -0.12
glycan array binding signal (z-score) [4]: -0.111
glycan array binding signal (z-score) [5]: -0.125
glycan array binding signal (z-score) [6]: -0.121
glycan array binding signal (z-score) [7]: -0.115
glycan array binding signal (z-score) [8]: -0.114
glycan array binding signal (z-score) [9]: -0.121
glycan array binding signal (z-score) [10]: -0.09
glycan array binding signal (z-score) [11]: -0.126
glycan array binding signal (z-score) [12]: -0.132
glycan array binding signal (z-score) [13]: -0.125
glycan array binding signal (z-score) [14]: -0.112
glycan array binding signal (z-score) [15]: -0.129
glycan array binding signal (z-score) [16]: -0.105
glycan array binding signal (z-score) [17]: -0.116
glycan array binding signal (z-score) [18]: -0.118
glycan array binding signal (z-score) [19]: -0.133
glycan array binding signal (z-score) [20]: -0.13
glycan array binding signal (z-score) [21]: -0.126
glycan array binding signal (z-score) [22]: -0.118
glycan array binding signal (z-score) [23]: -0.128
glycan array binding signal (z-score) [24]: -0.1
glycan array binding signal (z-score) [25]: -0.127
glycan array binding signal (z-score) [26]: -0.116
glycan array binding signal (z-score) [27]: -0.118
glycan array binding signal (z-score) [28]: -0.127
glycan array binding signal (z-score) [29]: -0.12
glycan array binding signal (z-score) [30]: -0.119
glycan array binding signal (z-score) [31]: -0.125
glycan array binding signal (z-score) [32]: -0.124
glycan array binding signal (z-score) [33]: -0.128
glycan array binding signal (z-score) [34]: -0.104
glycan array binding signal (z-score) [35]: -0.118
glycan array binding signal (z-score) [36]: -0.137
glycan array binding signal (z-score) [37]: -0.111
glycan array binding signal (z-score) [38]: -0.107
glycan array binding signal (z-score) [39]: -0.123
glycan array binding signal (z-score) [40]: -0.105
glycan array binding signal (z-score) [41]: -0.121
glycan array binding signal (z-score) [42]: -0.092
glycan array binding signal (z-score) [43]: -0.136
glycan array binding signal (z-score) [44]: -0.135
glycan array binding signal (z-score) [45]: -0.129
